According to paper PMC4336329 (PLoS ONE, 2015):
The campaign covered roughly 310,000 compounds. About 2,200 (0.71%) showed an effect of 50% or more. The effect is printed as a negative number. The list shows a part of the results.

molecular target: human ether-à-go-go-related gene (hERG) potassium channel (human, UniProt Q12809); assay: primary screen, population patch clamp on CHO cells stably expressing hERG
Sequence (Q12809 whole entry, looked up): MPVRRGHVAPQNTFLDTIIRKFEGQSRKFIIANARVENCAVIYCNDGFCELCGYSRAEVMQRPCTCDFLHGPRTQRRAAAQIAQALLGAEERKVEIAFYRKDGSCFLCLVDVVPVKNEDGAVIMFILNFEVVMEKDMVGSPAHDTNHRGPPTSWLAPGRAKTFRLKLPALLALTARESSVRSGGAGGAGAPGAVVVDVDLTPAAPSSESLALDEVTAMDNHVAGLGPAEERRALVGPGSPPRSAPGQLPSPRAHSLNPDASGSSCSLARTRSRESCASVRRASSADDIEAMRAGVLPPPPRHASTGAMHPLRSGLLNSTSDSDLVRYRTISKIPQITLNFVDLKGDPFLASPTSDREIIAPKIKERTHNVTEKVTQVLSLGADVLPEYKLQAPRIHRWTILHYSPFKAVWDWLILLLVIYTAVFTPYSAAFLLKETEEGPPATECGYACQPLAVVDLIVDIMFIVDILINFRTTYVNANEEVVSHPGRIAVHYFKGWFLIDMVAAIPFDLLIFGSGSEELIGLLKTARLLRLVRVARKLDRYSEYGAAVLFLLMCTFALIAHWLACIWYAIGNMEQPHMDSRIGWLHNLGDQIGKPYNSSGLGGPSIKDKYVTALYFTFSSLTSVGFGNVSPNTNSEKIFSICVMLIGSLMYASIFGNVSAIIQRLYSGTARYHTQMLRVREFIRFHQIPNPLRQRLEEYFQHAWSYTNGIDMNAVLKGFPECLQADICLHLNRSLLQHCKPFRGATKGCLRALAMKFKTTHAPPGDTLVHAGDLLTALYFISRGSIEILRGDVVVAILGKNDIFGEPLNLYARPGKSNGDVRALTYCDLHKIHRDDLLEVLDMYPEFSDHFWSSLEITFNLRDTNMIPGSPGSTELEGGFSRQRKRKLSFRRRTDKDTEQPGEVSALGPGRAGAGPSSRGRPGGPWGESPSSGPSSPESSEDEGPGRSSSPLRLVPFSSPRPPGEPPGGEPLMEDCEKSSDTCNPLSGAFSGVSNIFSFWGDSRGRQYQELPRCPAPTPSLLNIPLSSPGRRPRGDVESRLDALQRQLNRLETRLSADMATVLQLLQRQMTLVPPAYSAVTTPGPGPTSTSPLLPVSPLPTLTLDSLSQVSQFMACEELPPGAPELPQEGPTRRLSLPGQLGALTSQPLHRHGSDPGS

Structure (SMILES)	hERG current change (%, negative = inhibition) at 1uM [%]
CC(C)CN(C(=O)CSc1nnc2c(Cl)cc(C(F)(F)F)cn12)C1CCS(=O)(=O)C1 (centres unmarked)	6.61
CCC(C)N(C(=O)COC(=O)c1cc([N+](=O)[O-])ccc1N1CCOCC1)C1CCS(=O)(=O)C1 (centres unmarked)	7.5
COc1ccccc1N1CCN(C(=O)c2ccc(-c3ccc(Cl)cc3)o2)CC1	10.2
O=C(CSc1nc2ccccc2c(=O)n1-c1ccc(Cl)cc1)N/N=C/C=C/c1ccccc1[N+](=O)[O-]	-3.31
O=C(CN1CCN(C(=O)c2ccco2)CC1)N1CCc2[nH]c3ccccc3c2C1	6.07
CNS(=O)(=O)c1cccc(C(=O)OCC(=O)Nc2cc(F)ccc2F)c1	7.16
CC(C)(C)P(=O)(c1ccncc1)N1CCCC1 (centres unmarked)	6.77
O=C(c1cc2nc(-c3ccco3)cc(C(F)(F)F)n2n1)N1CCCc2ccccc21	16.9
O=C(COC(=O)c1c[nH]c(=O)[nH]c1=O)Nc1ccccc1	1.65
O=C1CC(N2CCN(c3nc4ccccc4s3)CC2)C(=O)N1c1ccc(F)cc1 (centres unmarked)	2
COc1ccc(CN=Cc2c(O)[nH]c3ccccc23)cc1	12.1
Cc1c(NC(=O)/C=C/c2cccs2)c(=O)n(-c2ccccc2)n1C	2.11
CCOC(=O)CN1CC23C=CC(O2)C(C(=O)Nc2ccc(OC)cc2OC)C3C1=O (centres unmarked)	11.4
COc1ccc(N2C(=O)C(Cc3ccccc3)NC2=S)cc1 (centres unmarked)	10.1
CCC(C(=O)NCCCN1CC(C)CC(C)C1)n1nc(C)c2sc3ccccc3c2c1=O (centres unmarked)	-6.74
O=C(NCc1ccc(F)cc1Cl)C1CCN(S(=O)(=O)N2CCC3(CC2)OCCO3)CC1	-3.06
CCN(CC)CCC(c1ccc(N(C)C)cc1)c1c(O)cc(OC)cc1OC (centres unmarked)	12.3
COc1cc(N2C(=O)CC(=O)NC2=O)cc(OC)c1OC	11.7
CCOC(=O)c1ccc(NC(=O)CSCCC(=O)O)cc1	10.3
COc1ccc(S(=O)(=O)N2CCCCCC2)cc1C(=O)Nc1cccc(C)n1	14.8
CCOC(=O)C1CCN(C(=O)COC(=O)c2nc3nc(C)cc(C)n3n2)CC1	3.29
CC(C)=CC(=O)O[C@@H]1Cc2cc3ccc(=O)oc3cc2OC1(C)C	12.1

Structure (SMILES)	hERG current change (%, negative = inhibition) at 1uM [%]
CCN(CC)CCCN(CC(=O)N(C)Cc1ccccc1)C(=O)c1ccc([N+](=O)[O-])cc1.Cl.O	14.9
CCCC(C(=O)NCC1CCCO1)N(C(=O)CNS(=O)(=O)c1ccccc1)c1ccc(F)cc1 (centres unmarked)	13.7
COC(=O)C1(CCSC)NC(c2ccc(O)c(OC)c2)C2C(=O)N(c3ccc(C)cc3)C(=O)C21 (centres unmarked)	14.1
O=C(CCSCc1ccc(Cl)cc1)NCc1ccco1	7.89
O=C(Cc1ccc2c(c1)CCCC2)Nc1ccccc1Br	9.8
COc1ccc(-n2c(C)cc(C(=O)COC(=O)Cn3cnc4ccccc43)c2C)cc1	10
COc1ccccc1NC(=O)C(Sc1ccccc1)c1ccccc1 (centres unmarked)	-0.0801
C=CSc1sc(Cl)c(N(CC)CC)c1[N+](=O)[O-]	9.51
O=C(Nc1nc(-c2ccccc2)cs1)c1ccccc1F	14.5
CSc1nccc(-c2cc(Cl)sc2Cl)n1	9.65
O=C(N/N=C/c1ccc2c(c1)OCO2)c1cccs1	9.32
CN(C)C/C=C(/c1ccc(Br)cc1)c1cccnc1.Cl	-60.8
Cc1cccc(Oc2nc(-c3cccc([N+](=O)[O-])c3)nc3ccccc23)c1C	-4.69
O=C(Nc1ccc2c(c1)OCO2)c1ccncc1	11.8
CSc1cccc(NC(=O)C2CCCN(S(=O)(=O)c3cccs3)C2)c1 (centres unmarked)	14.2
O=c1c2cnn(-c3ccccc3)c2nnn1/N=C/c1cccnc1	15.1
O=C(NCc1cccnc1)c1noc2c1CCCC2	1.27
CC1CC1c1ccc(/C=C(\C#N)C(=O)Nc2cc(Cl)ccc2Cl)o1 (centres unmarked)	14.6
COc1ccccc1S(=O)(=O)Nc1cc(S(=O)(=O)N2CCCCC2)ccc1N1CCOCC1	-1.32
CCOC(=O)C1CCN(c2ncnc3c2oc2ccc(Br)cc23)CC1	-2.55
O=C(NC1CCCCC1)c1cc2nc3c(c(C(F)(F)F)n2n1)CCCC3	-2.25
COc1ccccc1C(=O)NC(=O)CSc1nnc(N)s1	-0.326

Structure (SMILES)	hERG current change (%, negative = inhibition) at 1uM [%]
Cc1nc(C(F)(F)F)ccc1C(=O)N1CCCCC1	17.5
CCOC(=O)c1cnn(-c2nc(-c3ccccc3F)cs2)c1C(F)(F)F	4.74
CCn1cnc2sc(C(=O)Oc3cccc(C)c3)c(C)c2c1=O	10.9
Oc1ccccc1C=NC(c1ccccc1)C(O)c1ccccc1 (centres unmarked)	2.05
Cc1ccc(C)c2[nH]c(=O)c(CCNC(=O)c3ccco3)cc12	10.5
O=C(NCc1cccs1)C1CCCN1S(=O)(=O)c1ccccc1F (centres unmarked)	-0.297
COc1ccc(S(=O)(=O)N2CCN(Cc3cc(OC)c(OC)c(OC)c3)CC2)cc1.O=C(O)C(=O)O	17.2
Cc1cc(C)nc(-n2nc(C)c(Oc3ccccc3O)c2C)n1	3.94
CN(CCCC(=O)NCc1ccc2c(c1)OCO2)S(=O)(=O)c1ccc([N+](=O)[O-])cc1	-10.9
CN(c1cnn(-c2ccccc2)c(=O)c1Cl)n1cccc1	8.82
Cc1ccc2c(c1)C(O)(CC(=O)/C=C/C=C/c1ccccc1)C(=O)N2 (centres unmarked)	16.2
O=C(NCc1ccc(Cl)cc1)C1CC(O)CN1S(=O)(=O)c1ccc(Cl)cc1 (centres unmarked)	11.6
O=C(Cn1cc(/C=N/NC(=O)c2ccccc2Br)c2ccccc21)Nc1ccc(F)cc1	11.4
CCSc1nnc(-c2ccc(S(=O)(=O)N3CCOCC3)cc2)n1C	12.5
Cc1ccccc1-c1nnn(Cc2ccc(F)cc2Cl)n1	7.2
I.OCCNC1=NCCN1	15.2
O=C(Nc1cccc(S(=O)(=O)N2CCCCC2)c1)c1ccc2ccccc2n1	0.162
COC(=O)c1cc(Br)ccc1NC(=O)Nc1ccccc1	5.24
CCOC(=O)C1=C(C)NC(C)=C(C(=O)OCC)C1C(=O)OCC(=O)c1ccc2c(c1)OCCO2	6.34
CCn1cc([N+](=O)[O-])c(C(=O)Nc2c(C)nn(Cc3cccc(F)c3)c2C)n1	15.8
O=C(CCNS(=O)(=O)c1ccc(Br)s1)NC1CCCC1	2.49
CCOc1ccc(CNC(=O)C2CCCN(S(=O)(=O)N3CC(C)CC(C)C3)C2)cc1OC (centres unmarked)	11.3

Structure (SMILES)	hERG current change (%, negative = inhibition) at 1uM [%]
COCCCNC(=S)N1CCN(C(=O)c2ccco2)CC1	11.3
Cc1ccc(NC(=O)CCN2CCC(Cc3ccccc3)CC2)cc1	-17.4
CC(=O)OCC(=O)Nc1cc(S(=O)(=O)N2CCCCCC2)ccc1Cl	7.83
COc1ccc(NC(=O)CN2CCCC(C)C2)c([N+](=O)[O-])c1 (centres unmarked)	-2.14
CCOC(=O)N1CCC(N2C(=O)c3ccccc3C2Nc2cc(C)cc(C)c2)CC1 (centres unmarked)	-4.38
O=C(Nc1nc(-c2ccccn2)cs1)c1cccc(S(=O)(=O)N2CCOCC2)c1	1.18
CCc1nnc(NS(=O)(=O)c2ccc(NC(=O)c3ccc(Cl)cc3)cc2)s1	1.4
O=c1[nH]ncc(N/N=C\c2cccnc2)c1Cl	7.03
COc1ccccc1C(CC(=O)Nc1ccc(Cl)cc1)c1ccc(OC(C)C)cc1 (centres unmarked)	3.58
COc1ccc(NC(=O)CNC(=O)c2nn(-c3ccc(OC)cc3OC)c(=O)c3ccccc23)c(OC)c1	14.8
Nc1nnc(CCOc2ccc(Cl)cc2)s1	7.33
Cc1nc2cc(C(F)(F)F)ccc2n1C1CCN(CC(=O)NC(C)(C)C)CC1	4.12
Nc1nnc(CC(=O)N/N=C/c2ccc(-c3cccc(C(=O)O)c3)o2)s1	10.6
Cc1ccc(NC(=S)NNC(=S)NC2CCCCC2)cc1	9.28
O=C(CN1CCN(CC(=O)Nc2ccc(Cl)cc2)CC1)Nc1ccc(F)cc1	-86.9
COc1ccc(N2CCN(C(=O)COC(=O)c3cc(S(=O)(=O)N(C)C)ccc3N3CCCC3)CC2)cc1	13.2
C/C(CC(=O)Nc1cccc(C(F)(F)F)c1)=N\NC(=O)C(=O)NCC(C)C	2.68
O=C(N/N=C/c1ccc([N+](=O)[O-])o1)c1cn(-c2ccccc2)nc1-c1ccccc1	3.33
Cl.Nc1nc(C23CC4CC(CC(C4)C2)C3)cs1	8.94
O=C(Nc1ccccc1)c1ccc[n+](Cc2ccc([N+](=O)[O-])cc2)c1.[Br-]	5.28
